Assay results taken from the supplement of paper PMC12632987.
The full ranking holds about 4,500 sequences; the median of “median log2 fold change of GCK-ALFA target abundance (FLAG IP / Myc IP barcode read proportion)” is about 0.078, and the lowest 2% start at about -0.6. The list shows a part of the results.

B1: GBRAP_139_3717 (protein)
chain: SAAEEKIEEAKKIVKEYKDDLKLLAKKLAELISTVDDETALEIARAAAEELKDWSYEKWEEFIELLEKELKELGLDEDTVLAIEGEMEAVMAKHLMAKEK
B2: GBRAP_11_2914 (protein)
chain: KLEKLKEAAKLAKELIETLKKLLKEGTDNEELREKALKLAEELLKLVEENFSEEDAELAKELVEALKKAKEDPANAEEYVKEALAIAQVLLGQALLEIEE
B3: GBRAP_35_5576 (protein)
chain: EDKEMLLETVEDLAEATIEAIKEGDVDLAIALLKAFLRTAKLAVEELENDLEALEKIAELLKKVIEEIKKHLADNPEMQKLLKELEKLLKEVKEKAEKVK
B4: GBRAP_160_4097 (protein)
chain: MEEVEKIIKEIEELAKETFEMIEGENIEERATIVRGLGGDVIMLLFESGKVSDEVEDFADKEFDALVATILANPDLTEEEIKKLIEETVKKVKEKIKEDV
B5: GBRAP_14_3816 (protein)
chain: MEELKKKIKEILEELREELVEEIGLDEEKVKKLIDEALEKIFKALDDPEGPEKKIEEIMDELREKIEELAAELGEDEAAAARALVTDAEYEILELYEESK
B6: GBRAP_160_4685 (protein)
chain: SEKVEEAEEFLEEEFAEVVELFDEVTREELAAFVRVAFGEIILELEELGLLTDEVAEVIDEEEERIVDAILNDPNITKEEFAALLEEAAEEIVEELEEEA
B7: GBRAP_184_5216 (protein)
chain: MLVNRSVEAETAEEAIKKSEEVIEEAKKEGKELNLNVFLKNMSIEEIEKVMTFLSEKKKEGLIKDATVVVEDPVSEEELDKLIKIADENGIRLVAALKDE
B8: GBRAP_35_5534 (protein)
chain: ESDLEIAEMLVDTMEDLVEALPDVSPEEKIKLARHIIDLAEDIVKLKPKDKELIEKAIEILEEAIEIIKKSDLPEEEKEELIKRLEEQKKKLEELLKENE
B9: GBRAP_52_6352 (protein)
chain: MEEKARATARELVALAQAGDEAALEARAKEIAETWSEEEIELLFRELARLARTADPATAEAILRVAEVLADALIEAGWDEYFASYLLAEVDKAVYENLQR
B10: GBRAP_52_5916 (protein)
chain: MEEEIKKIAEEILNAAIAGDEEGMKALIKEAVEKLNTEELKKLIKTLAELTAEKGPEYYDIFAKIMDILEDEVEEAGKDVEEIQYAIAEGFGLLYKAEQA
B11: GBRAP_125_2976 (protein)
chain: SKEELLEDLATVARALGFSDDDVAEAVELAGRFSVKGTLYAMMKALGYEELAELVEKITEEEAKEVLKEAAAEIRANPDMTPEEVKALLKELAEKAIAKK
B12: GBRAP_186_5389 (protein)
chain: EEEAEEELDKVIDEAEAEGYRVIVSYLENKSLEETKAAIERDADAVAALAEETGERYALIVVVKTKAEDIEELKAHAAELNKRYLARTGVRVRVVVEDSE
B13: GBRAP_52_5868 (protein)
chain: MREELREKLEEMLALVKAGDLEGARALAKELVASISEEEAEVLIEVAAEWAAELAPEDLDAAWTLMEIIAEALEEAGFPEELVTLFEGEVGSAIAKREAA
B14: GBRAP_128_3365 (protein)
chain: VDPEFLAKVKELVDKMIASDVETARELATELVELMSKASLEEQEAAVEIIKENLPKFTVEKLDVLADVIRENRDKLTPEGQNLAADLEVEALNEAEEKEE
B15: GBRAP_35_5510 (protein)
chain: STEETTADMLIATIEDAVLALPDVDVETAAAIARSLARAARELAEELRDDLEALRRLAEELRRLLEAVRKHYGDSPLAKETAEELEEVLREVERLAEEAE
B16: GBRAP_11_2787 (protein)
chain: KKEKLKELAKLLEEAAKLLEKLLAGDPNDEELWKKLEELLKKAKELAKELGLEDVAELLEEAKKDLEKAKADPENRDLYLQNALTHVRVAKGLVLLEIEE
B17: GBRAP_184_5314 (protein)
chain: EVVHHVIEVETPEEARAKLAAIEAEIKASGKKHTVVIFLKNPTKELLDTVMDEIKAMKAAGVDADFIVVIEEPLDEEMTDYAVEKADEAGARVVIALPEE
B18: GBRAP_14_3876 (protein)
chain: MEEIEKVLEEMVKEIVAFVAEVAPEKAPEVKERLEELLKKALEEIKKTGDPLAAFDKMEKEMLEKMEEITADLPEEDRTAILAHLRVELAEARERIDEIL
B19: GBRAP_74_6550 (protein)
chain: MEEKLEEAEKAFENGDYLKAAKILKEILEEKPNEETIKRIQKLIVRLAEKLDELDDEAIEALADAVAELYTNVPDELISDETYRAAARILAAAVAREKAR

These binders were tested against GABARAP, O95166 (assay: median log2 fold change of GCK-ALFA target abundance (FLAG IP / Myc IP barcode read proportion) (log2 ratio); each designed protein is fused to an ALFA-tag nanobody in HEK293 cells to bring the named protein to FLAG-tagged glucokinase (GCK); Myc marks an untargeted standard; higher = target protein stabilised (more abundant)). Details: target protein: 3xFLAG-MCP-GCK-ALFA reporter; HEK293 landing pad (RPLP).
GABARAP, O95166, sequence (O95166 whole entry, the tested form may be a part): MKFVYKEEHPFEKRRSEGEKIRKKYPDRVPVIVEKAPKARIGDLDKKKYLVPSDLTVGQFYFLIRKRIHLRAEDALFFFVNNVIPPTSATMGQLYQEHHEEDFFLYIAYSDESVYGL
In short: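 The readout is target abundance, the per-binder median log2 ratio of FLAG to Myc barcode read proportions. It came from HEK293 landing-pad cells carrying a recombined ALFA-nanobody-fused binder library, induced with 2 μg mL^−1 doxycycline and transfected with a plasmid for a FLAG-tagged target and a Myc-tagged standard. After 48 h, lysates were immunoprecipitated with anti-FLAG and anti-Myc, and circular RNA barcodes were reverse transcribed, amplified and sequenced. Each barcode needed a proportion of at least 10^−7 in both replicates and each binder at least 3 barcodes per replicate, a pseudocount of 10^−6 was added, and the replicates were pooled.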
For B1, the “median log2 fold change” value was -0.236.
In the case of B2, the “median log2 fold change” value is reported as 0.252.
With B3 the “median log2 fold change” value was -1.27.
B4 was tested, and the “median log2 fold change” value was -0.135.
In the case of B5, the “median log2 fold change” value is reported as 0.118.
In the case of B6, the “median log2 fold change” value is reported as -0.679.
For B7, the “median log2 fold change” value was 0.153.
B8 was tested, and the “median log2 fold change” value was 0.28.
For B9, the “median log2 fold change” value was -0.243.
B10 was tested, and the “median log2 fold change” value was 0.203.
With B11 the “median log2 fold change” value was -0.0567.
With B12 the “median log2 fold change” value was 0.0775.
In the case of B13, the “median log2 fold change” value is reported as -0.162.
B14 was tested, and the “median log2 fold change” value was -0.039.
With B15 the “median log2 fold change” value was -0.0935.
In the case of B16, the “median log2 fold change” value is reported as -0.00588.
In the case of B17, the “median log2 fold change” value is reported as 0.0282.
B18 was tested, and the “median log2 fold change” value was 0.285.
For B19, the “median log2 fold change” value was -0.0175.
